Results from PubChem BioAssay AID624418 (National Center for Advancing Translational Sciences (NCATS), 2012).
About 530 (0.13%) of roughly 410,000 compounds were called active. The inconclusive results got no clear call from the source; some entries with a clear call stand among them for comparison. Calls come from the whole dose curve; as a rule, active = well fitted inhibition curve with a large enough effect; inconclusive = small, poorly fitted or top-dose-only effect, or another doubt; inactive = no such curve, though single readings can be large or run the other way. A potency beside an inconclusive call is a rough fit, not a confirmed value.

Test: qHTS of GLP-1 Receptor Inverse Agonists: Cytotox Screen
Settings: HEK293 cAMP-luciferase reporter cells, luminescence, 24 h; activity change, negative = inhibition: at 38.3 µM (top of the series) unless noted
In short: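 MLSMR compounds, 24 hr on cells at 37 deg C/5% CO2; luminescence after luciferase reagent (12 min RT). Inhibition counted as the undesired cytotoxic outcome.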
% is set by controls: 0 for no effect and ±100 for the full control effect; potency is the fitted concentration of half-maximal effect.

Row | Structure (SMILES) | Potency | activity change, negative = inhibition
1 | Cc1cc(C)cc(NC(=S)/N=C(\N)Nc2nc(C)c3ccccc3n2)c1 | inconclusive: 6.31 µM [inhibitor, partial curve, poor fit] | 
2 | Cc1sc2nc(C(C)C)nc(SCC(=O)N3CCN(C(=O)c4ccco4)CC3)c2c1C | inconclusive: 14.1 µM [inhibitor, single point] | 
3 | COCc1[nH]nc2c1C(c1cc(OC)c(O)c(OC)c1)C(C#N)=C(N)O2 (centres undefined) | inconclusive: 11.2 µM [inhibitor, single point] | 
4 | CC1=Nc2ccccc2/C1=C/c1c(N)n2c(S(=O)(=O)C(C)C)nsc2nc1=O | inconclusive: 22.4 µM [inhibitor, single point] | 
5 | CCOC(=O)C1CCN(C(c2ccc(SC)cc2)c2c(O)cc(C)n(Cc3ccco3)c2=O)CC1 (centres undefined) | inactive | 
6 | O=c1ccc2cc([N+](=O)[O-])c(CCO)cc2o1 | inconclusive: 28.2 µM [inhibitor, single point] | 
7 | CCc1ccc(CNC(=O)C(C)n2ccc3cc(S(=O)(=O)N4CCCCCC4)ccc32)cc1 (centres undefined) | inactive | 
8 | CCN(CC)CCNC(=S)NC(=O)c1cn(-c2ccccc2)nc1-c1ccc(OC)cc1 | inconclusive: 14.1 µM [inhibitor, single point] | 
9 | CCn1c(SCC#N)nc2c(c1=O)C1(CCCC1)Cc1ccccc1-2 | inconclusive: 28.2 µM [inhibitor, single point] | 
10 | CCOC(=O)C1=C(O)/C(=C/c2cc(OC)c(OC)c(OC)c2)SC1=Nc1ccc(OC)cc1 | inconclusive: 11.2 µM [inhibitor, single point] | 
11 | Clc1ccc(OCCSCc2nc3ccccc3[nH]2)cc1 | inactive | 
12 | CCC1CCCCN1CCCNC(=O)c1[nH]c2ccccc2c1Sc1ccc(Cl)cc1 (centres undefined) | inconclusive: 28.2 µM [inhibitor, single point] | 
13 | O=C(N/N=C/c1ccc(F)cc1)c1cc(-c2ccc3c(c2)OCO3)n[nH]1 | inconclusive: 28.2 µM [inhibitor, single point] | 
14 | Cc1ccc(Cl)cc1NS(=O)(=O)c1ccc2oc(=O)c3ncn(C)c3c2c1 | inconclusive: 3.55 µM [inhibitor, full curve] | 
15 | O=C(NCCc1ccc(F)cc1)C(=O)NCC(c1cccs1)S(=O)(=O)c1ccc(F)cc1 (centres undefined) | inactive | 
16 | CC(=O)c1ccc(N2CCN(C(=O)C3CCCN(c4ncnc5c4nc4n5CCCCC4)C3)CC2)cc1 (centres undefined) | inconclusive: 12.6 µM [inhibitor, partial curve, poor fit] | 
17 | COc1ccc(NC(=O)c2ccccc2Cl)c(NC(=O)c2ccco2)c1 | inconclusive: 3.55 µM [inhibitor, full curve] | 
18 | NC(=S)N=Nc1ccc(O)cc1 | inconclusive: 3.98 µM [inhibitor, full curve] | 
19 | COC(=O)/C(=C\C(=O)c1ccccc1)Nc1ccc(OC)cc1 | inconclusive: 11.2 µM [inhibitor, single point] | 
20 | COc1ccc(OC)c(NCc2cccn2-c2nnc(N3CCCCC3)s2)c1 | inconclusive: 0.447 µM [inhibitor, full curve, poor fit] | 
21 | Cc1cc(NCc2ccccn2)n2ncc(-c3ccccc3)c2n1 | inconclusive: 1.78 µM [inhibitor, partial curve, poor fit] | 
22 | CCN1CCN(c2ncc(C(=O)Nc3ccccc3C(=O)OC)c3ccccc23)CC1 | inconclusive: 8.91 µM [inhibitor, partial curve] | 

Row | Structure (SMILES) | Potency | activity change, negative = inhibition
23 | COc1ccc(-c2nnc(SCC(=O)Nc3ccccc3OC)o2)cc1 | inactive | 
24 | O=C1CC/C=C\C[C@@H](CC(=O)N(CCO)Cc2ccccc2)C(=O)NCCO1 | inconclusive: 20 µM [inhibitor, single point] | 
25 | CCOC(=O)c1nnc(-c2ccccc2)nc1Oc1ccc(Cl)cc1 | inactive | 
26 | COc1cc(-c2nc(-c3ccccc3)c(-c3cc([N+](=O)[O-])ccc3C)[nH]2)cc(OC)c1OC | inactive | 
27 | O=C(Nc1ccccc1SCC1CSc2nc3ccccc3c(=O)n21)c1cccc(Cl)c1 (centres undefined) | inactive | 
28 | CC1=C(C(=O)OC(C)C)C(c2c[nH]c3ccccc23)n2ncnc2N1 (centres undefined) | inactive | 
29 | COC(=O)c1[nH]c2c(c1C)C(=O)CC(c1cccc(OC)c1)C2 (centres undefined) |  | inconclusive: -43.3% [inhibitor]
30 | CCOc1ccc(-c2[nH]ncc2-c2ccc(OC)c(OC)c2)c(O)c1 | inconclusive: 0.891 µM [inhibitor, full curve, poor fit] | 
31 | CC1(C)Cc2ccccc2-c2nc3ccccc3c(=O)n21 | inactive | 
32 | S=C(NC1CCCCC1)N(CCc1ccccc1)CCc1ccccc1 | inactive | 
33 | Cc1ccc2nc(-c3cccc(-c4cccc(Cl)c4)c3)c(NCc3ccccc3)n2c1 | inactive | 
34 | Cc1ccc(C)n1-n1cnc2sc(-c3ccccc3)cc2c1=O | inactive | 
35 | CC(C)(C)OC(=O)[C@H](CCCCN)NC(=O)c1[nH]cnc1C(=O)N[C@@H](Cc1ccccc1)C(=O)OCc1ccccc1 | inconclusive: 0.501 µM [inhibitor, full curve, poor fit] | 
36 | Cc1cc(C)c2c(n1)SCC(=O)N2CC(=O)Nc1cc(F)ccc1F | inconclusive: 3.16 µM [inhibitor, full curve] | 
37 | COc1cc(OC)cc(C(=O)Nc2ccc(N3CCN(C(=O)c4cccs4)CC3)cc2)c1 | inconclusive: 7.94 µM [inhibitor, partial curve] | 
38 | COCCOC(=O)c1c(C)oc2c1cc(NS(=O)(=O)c1ccc(Cl)c(C)c1)c1ccccc12 | inactive | 
39 | Cc1cc(Nc2ccccc2)n(-c2ccccc2)n1 | inactive | 
40 | CCc1ccccc1NS(=O)(=O)c1ccc2oc(=O)c3ncn(C)c3c2c1 | inconclusive: 1 µM [inhibitor, partial curve, poor fit] | 
41 | CC1(C(=O)NCc2cccs2)Cc2c(-c3cccc(C(F)(F)F)c3)ccnc2O1 (centres undefined) | inconclusive: 7.94 µM [inhibitor, partial curve, poor fit] | 
42 | CC1CCC(NC(=O)CCNS(=O)(=O)c2ccc3c(c2)CCC(=O)N3)CC1 (centres undefined) | inactive | 
43 | COc1ccc(N2CCN(CCCn3ccc(NC(=O)OCc4ccccc4)nc3=O)CC2)cc1 | inactive | 
44 | COc1ccc(C(=O)NC2CC2)cc1OC1CCN(C/C=C/c2ccccc2)CC1 | inconclusive: 10 µM [inhibitor, single point] | 
